Among all 310,000 compounds or so, about 14,000 (4.5%) showed an effect of 50% or more. The effect is printed as a negative number. This is one part of the list.
molecular target: human ether-à-go-go-related gene (hERG) potassium channel (human, UniProt Q12809); assay: primary screen, population patch clamp on CHO cells stably expressing hERG
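Also: peak tail current of the secondary pulse compared with the same well before compound.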

Sequence of human ether-à-go-go-related gene (hERG) potassium channel (Q12809 whole entry, looked up): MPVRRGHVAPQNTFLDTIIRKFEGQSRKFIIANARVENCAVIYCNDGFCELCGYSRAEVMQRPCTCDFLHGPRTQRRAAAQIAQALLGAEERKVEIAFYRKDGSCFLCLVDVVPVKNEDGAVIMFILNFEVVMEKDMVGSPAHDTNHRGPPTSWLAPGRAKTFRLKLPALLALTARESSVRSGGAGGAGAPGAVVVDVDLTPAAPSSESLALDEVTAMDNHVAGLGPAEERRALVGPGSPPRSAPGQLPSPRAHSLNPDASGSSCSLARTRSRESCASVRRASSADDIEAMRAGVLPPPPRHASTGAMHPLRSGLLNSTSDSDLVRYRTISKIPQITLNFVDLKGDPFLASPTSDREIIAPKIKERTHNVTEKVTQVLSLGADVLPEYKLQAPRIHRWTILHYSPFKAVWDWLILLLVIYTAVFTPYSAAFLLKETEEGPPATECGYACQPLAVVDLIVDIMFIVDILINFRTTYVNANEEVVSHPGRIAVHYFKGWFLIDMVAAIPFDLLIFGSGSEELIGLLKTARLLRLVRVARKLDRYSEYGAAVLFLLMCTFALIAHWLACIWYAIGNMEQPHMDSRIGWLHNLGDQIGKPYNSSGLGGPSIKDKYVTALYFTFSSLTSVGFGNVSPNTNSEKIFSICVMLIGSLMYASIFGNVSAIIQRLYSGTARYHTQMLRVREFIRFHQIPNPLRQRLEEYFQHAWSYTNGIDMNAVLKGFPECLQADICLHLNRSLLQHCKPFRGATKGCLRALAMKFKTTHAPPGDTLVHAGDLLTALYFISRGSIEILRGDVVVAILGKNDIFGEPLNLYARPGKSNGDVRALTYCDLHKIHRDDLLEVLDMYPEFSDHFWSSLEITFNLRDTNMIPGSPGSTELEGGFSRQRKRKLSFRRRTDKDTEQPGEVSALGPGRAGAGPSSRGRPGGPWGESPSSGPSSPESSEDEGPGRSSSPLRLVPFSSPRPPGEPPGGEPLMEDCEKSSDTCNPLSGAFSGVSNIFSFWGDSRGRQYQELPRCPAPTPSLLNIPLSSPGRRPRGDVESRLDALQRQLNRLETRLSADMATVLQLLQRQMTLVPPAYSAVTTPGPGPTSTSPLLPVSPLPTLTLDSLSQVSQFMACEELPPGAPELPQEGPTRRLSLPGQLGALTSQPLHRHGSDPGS

Row | Structure (SMILES) | hERG current change (%, negative = inhibition) at 10uM [%]
1 | COc1ccc(CNc2ccc(S(N)(=O)=O)cc2)c(OC)c1OC | 1.15
2 | Cc1cccc(N/C=C/C(=C(C#N)C#N)N(C)C)c1 | -24.5
3 | COc1ccc(-c2nnc(SCC(=O)NC(=O)NCc3ccccc3)o2)cc1 | 9.51
4 | O=C(NCc1ccco1)C(c1ccccc1)N(CC1CCCO1)C(=O)Cn1nnc2ccccc21 (stereo not drawn) | -12.4
5 | COC(=O)c1ccc(C(=O)OC)c(NC(=O)CSc2nnc(-c3ccccc3Cl)o2)c1 | -6.19
6 | CCOC(=O)c1ccc(C(=O)NNC(=O)C2CC=CCC2)cc1 (stereo not drawn) | 21.8
7 | N#Cc1ccccc1CSc1ncccc1C(=O)O | 23.5
8 | C=CCn1c(SCC(=O)N2CCCC2)nc2c([nH]c3ccccc32)c1=O | -29.6
9 | Cc1cnc(C(=O)Nc2cccc3ncccc23)cn1 | 9.53
10 | Cc1cc(C(=O)NN=C2C3CC4CC(C3)CC2C4)c2ccccc2n1 | 11
11 | CC1(C(=O)N/N=C/c2ccc3c(c2)OCO3)CC1(Br)Br (stereo not drawn) | -5.57
12 | C=C(C)C(=O)OCC(C)C | 19.4
13 | O=C1N[C@@H](Cc2ccccc2)C(=O)N2[C@H]1C[C@H]1c3ccccc3N(OOSc3ccccc3)[C@H]12 | -27.7
14 | C/C(=N\NC(=O)c1cccs1)c1c(O)cc(C)oc1=O | 23.1
15 | CC(=O)c1c(Nc2ccccc2)sc(C(=O)c2ccccc2)c1C | -10.7
16 | Cc1cccc(NC(=O)Cn2nnc(C(=O)NCc3cccs3)c2N)c1C | 20.5
17 | Cc1cc(C)cc(NS(=O)(=O)c2ccc(Oc3ncc(C(F)(F)F)cc3Cl)cc2)c1 | 24.8
18 | CCN(CC(=O)Nc1ccccc1C(F)(F)F)C(=O)CCOc1ccccc1C | 6.04
19 | CC1CCN(C(=O)c2nc[nH]c2C(=O)N2CCC(C)CC2)CC1 | 17.6
20 | Cc1ccc(S(=O)(=O)Nc2cc(C(=O)N3CCC4(CC3)OCCO4)ccc2N2CCCCC2)cc1 | -51.3
21 | CCNC(=S)N1CCNC(=O)C1CC(=O)OC (stereo not drawn) | -1.54
22 | Cc1ccccc1OCC(O)CN1CCN(C)CC1.Cl (stereo not drawn) | -0.704
23 | Cc1cc2cc(CN(Cc3cccs3)C(=S)NCC3CCCO3)c(=O)[nH]c2cc1C (stereo not drawn) | -3.08

Row | Structure (SMILES) | hERG current change (%, negative = inhibition) at 10uM [%]
24 | c1ccc(N2CCN(c3nc(-c4ccccn4)nc4ccccc34)CC2)cc1 | -73.9
25 | Cn1c(Nc2ccccc2)nc2ccccc21 | 1.74
26 | O=C1CC(SCc2nc3ccccc3[nH]2)C(=O)N1c1ccc(Cl)cc1 (stereo not drawn) | -18.7
27 | CCc1ccccc1NC(=O)CCN1C(=O)c2ccccc2C1=O | 8.21
28 | CC(NC(=O)c1ccc([N+](=O)[O-])cc1[N+](=O)[O-])c1ccc(-c2ccccc2)cc1 (stereo not drawn) | -1.64
29 | CCOC(=O)C(=CNc1ccc(OC)cc1[N+](=O)[O-])C(=O)OCC | 10.5
30 | CN1CCn2c1nc(N1CCOCC1)nc2=O | 0.997
31 | Fc1ccc(-n2c(-c3cc(C4CC4)[nH]n3)n[nH]c2=S)cc1Cl | 11.8
32 | CCN(CC)S(=O)(=O)c1ccc(Br)c(OC)c1 | -11.2
33 | Cc1cccc(C)c1NC(=O)c1ccc(-n2cnnn2)cc1 | -44.2
34 | Cc1ccccc1NC(=O)c1cccc(S(=O)(=O)Oc2ccc([N+](=O)[O-])cc2)c1 | -24.5
35 | N#C/C(=C\c1ccc(O)cc1)C(=O)NCc1cccc(Cl)c1 | 25.3
36 | O=C(N1CCOCC1)N1CCOCC1 | -21.7
37 | C=CCn1c(SCC(=O)Nc2ccc(-c3nc4ccc(C)cc4s3)cc2)nnc1-c1ccccc1 | -3.04
38 | Cc1ccc(OC(=O)c2cccc(S(=O)(=O)N3CCCC3)c2)c(-n2nc3ccccc3n2)c1 | 7.11
39 | CCCCOC(=O)n1ccc(C(=O)Nc2ccccc2OC)n1 | -38.5
40 | O=C(Cc1ccc(-n2c(=O)[nH]c3ccsc3c2=O)cc1)N1CCN(c2ccc(Cl)cc2)CC1 | 31
41 | CCCCNC(=O)CN(c1ccc(Cl)c(Cl)c1)S(C)(=O)=O | 8.64
42 | CCC1C(=O)CC(c2ccco2)NC1c1ccco1 (stereo not drawn) | 5.53
43 | COc1ccc2nc(NC(=O)c3cc(S(=O)(=O)N4CCOCC4)ccc3C)sc2c1 | 1.72
44 | CCC(NC(=O)c1cccc(Cn2nc(C)c([N+](=O)[O-])c2C)c1)c1ccc(C(C)C)cc1 (stereo not drawn) | -0.782
45 | CCOC(=O)C1(Cc2ccccc2C)CCCN(C(=O)c2ccc3nccnc3c2)C1 (stereo not drawn) | 9.72
46 | CC(Oc1ccc(Cl)cc1Cl)c1nc(-c2ccc(NC(=O)c3ccncc3)cc2)no1 (stereo not drawn) | 2.89

Row | Structure (SMILES) | hERG current change (%, negative = inhibition) at 10uM [%]
47 | CCOc1ccccc1NC(=O)COC(=O)Cc1cccs1 | 18.5
48 | Cc1cc(-c2nnc(CCC(=O)NCc3ccc(OC(F)(F)F)cc3)o2)no1 | 3.05
49 | CC1CCCN(c2ccc(C(=O)NCC3CCCO3)cn2)C1 (stereo not drawn) | -8.01
50 | Cc1ccc(S(=O)(=O)N(CC(=O)NCC2CCCO2)c2cccc([N+](=O)[O-])c2)cc1 (stereo not drawn) | -34.5
51 | Cc1ccc(S(=O)(=O)c2nc(-c3ccccc3)oc2SCC(=O)NCC2CCCO2)cc1 (stereo not drawn) | 8.99
52 | CCc1ccc(CN(C)C(=O)C2CCC(=O)N(CCCN3CCCC3=O)C2)cc1 (stereo not drawn) | -3.87
53 | COC(=O)/C(C#N)=C/c1c[nH]c2ccccc12 | 19.6
54 | Cc1nnsc1C(=O)N1CCN(c2ccc(F)cc2)CC1 | 1.36
55 | CCCNC(=O)[C@H]1N2C(=O)c3c(ccc(OC)c3OC)C2SC1(C)C (stereo partly drawn) | 16.4
56 | COc1ccc(-c2cn3c(C)c(C(=O)NCCN4CCOCC4)sc3n2)cc1 | -41.1
57 | O=C(c1ccc(-c2ccc(Cl)cc2Cl)o1)N1CCOCC1 | -30.4
58 | CCOC(=O)c1cn(CC)c2cc(N3CCOCC3)c(F)cc2c1=O | 9.69
59 | O=C(Nc1ncc2c(n1)-c1ccccc1OC2)c1ccc(Cl)cc1 | -9.77
60 | c1ccc(COc2ccc(OCCn3cncn3)cc2)cc1 | 4.65
61 | COc1ccc(CC(=O)NCCS(=O)(=O)N2CCN(c3ccccc3OC)CC2)cc1 | -17.1
62 | COc1ccc(NC(=O)CCN2C(=O)c3ccccc3S2(=O)=O)cc1 | -6.9
63 | O=C(/C=C/c1ccccc1)NC(=S)Nc1ccccc1O | 14.1
64 | CCCCNC(=S)NNC(=O)c1nn(C)cc1Cl | 14.1
65 | COc1ccc(N2CCN(Cc3csc(C)c3-c3ccc(C)cc3)CC2)cc1 | 10.6
66 | CC(C)N1CCC(N2CCN(Cc3ccc(-c4ccc(Cl)cc4)o3)CC2CCO)CC1 (stereo not drawn) | -64.5
67 | Cc1cc(N2CCN(S(=O)(=O)c3ccc(Cl)c(Cl)c3)CC2)c2ccccc2n1 | -45.3
68 | O=C(O)CCc1nnc(SCC(=O)Nc2ccc(Br)cc2)[nH]c1=O | 19.4
69 | CC(=O)N1CCc2c(sc(NC(=O)CN3C(=O)CCC3=O)c2C(N)=O)C1 | -2.73

Row | Structure (SMILES) | hERG current change (%, negative = inhibition) at 10uM [%]
70 | COc1ccc(S(=O)(=O)N2CCCCCC2)cc1C(=O)OCC(=O)NCC(C)C | -42.5
71 | Cc1ccc2c(c1)c1c3n2CCCN(Cc2ccccc2)C3CCC1 (stereo not drawn) | -3.24
72 | COc1cccc(OCc2cc(C(=O)N3CCNC(=O)C3Cc3ccccc3)no2)c1 (stereo not drawn) | 0.349
73 | COc1ccc(C(=O)NCC2CCCO2)cc1 (stereo not drawn) | 1.17
74 | COc1cc(OC)c(C(=O)NCc2ccco2)cc1OC | 15.3
75 | CC(C)(C)n1cnc2cc(NC(=O)c3cccs3)ccc21 | -13.9
76 | CCN1C=CC2=C(C#N)C(N)C(C#N)(C#N)C(c3ccccc3C(F)(F)F)C2C1 (stereo not drawn) | -5.37
77 | O=C(Nc1cccnc1Cl)c1cc(-c2ccc(Cl)cc2)on1 | 13.4
78 | CC(O)CNCCCCOc1ccc(OCc2ccccc2)cc1 (stereo not drawn) | -18
79 | Cc1csc(NC(=O)CSc2nc3sc(C)c(C)c3c(=O)[nH]2)n1 | 4.3
80 | O=S(=O)(c1cccs1)N1CCN(Cc2ccccc2)CC1 | -14
81 | COc1cccc(C(=O)NC(=S)Nc2ccc(N3CCCC3)cc2)c1 | 10.6
82 | CCC(=O)Nc1nnc(-c2cccs2)s1 | 24.2
83 | COc1ccccc1NC(=O)CCCc1c[nH]c2ccccc12 | 6.15
84 | COc1ccc(OCC(=O)Nc2ccc3c(c2)nc(CCn2ccccc2=O)n3C)cc1 | -10.8
85 | Cn1c(=O)c2cc(S(=O)(=O)N3CCN(c4cccc(C(F)(F)F)c4)CC3)ccc2n(C)c1=O | 8.48
86 | CNC(=S)N(CCc1c(C)[nH]c2ccccc12)Cc1cccnc1 | 11
87 | Cn1nc(OC(=O)Nc2ccc(F)cc2)cc1C(F)(F)F | -7.95
88 | O=C(O)CN(Cc1ccco1)S(=O)(=O)c1ccc(F)cc1 | 16.7
89 | Br.CCn1c(-c2ccccc2)csc1=Nc1ccc(O)cc1 | -25.5
90 | CC(=O)Nc1ccc(NC(=O)c2ccc(NC(=O)c3ccccc3)cc2)cc1 | 16.4

Reference: article PMC4336329 (PLoS ONE, 2015)
